Among all 310,000 compounds or so, about 14,000 (4.5%) showed an effect of 50% or more. Effects have a minus sign here. This is one part of the list.
The compounds below were run against human ether-à-go-go-related gene (hERG) potassium channel (human, UniProt Q12809) (assay: primary screen, population patch clamp on CHO cells stably expressing hERG).
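Also: peak tail current of the secondary pulse compared with the same well before compound.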

human ether-à-go-go-related gene (hERG) potassium channel, sequence (Q12809 whole entry, looked up): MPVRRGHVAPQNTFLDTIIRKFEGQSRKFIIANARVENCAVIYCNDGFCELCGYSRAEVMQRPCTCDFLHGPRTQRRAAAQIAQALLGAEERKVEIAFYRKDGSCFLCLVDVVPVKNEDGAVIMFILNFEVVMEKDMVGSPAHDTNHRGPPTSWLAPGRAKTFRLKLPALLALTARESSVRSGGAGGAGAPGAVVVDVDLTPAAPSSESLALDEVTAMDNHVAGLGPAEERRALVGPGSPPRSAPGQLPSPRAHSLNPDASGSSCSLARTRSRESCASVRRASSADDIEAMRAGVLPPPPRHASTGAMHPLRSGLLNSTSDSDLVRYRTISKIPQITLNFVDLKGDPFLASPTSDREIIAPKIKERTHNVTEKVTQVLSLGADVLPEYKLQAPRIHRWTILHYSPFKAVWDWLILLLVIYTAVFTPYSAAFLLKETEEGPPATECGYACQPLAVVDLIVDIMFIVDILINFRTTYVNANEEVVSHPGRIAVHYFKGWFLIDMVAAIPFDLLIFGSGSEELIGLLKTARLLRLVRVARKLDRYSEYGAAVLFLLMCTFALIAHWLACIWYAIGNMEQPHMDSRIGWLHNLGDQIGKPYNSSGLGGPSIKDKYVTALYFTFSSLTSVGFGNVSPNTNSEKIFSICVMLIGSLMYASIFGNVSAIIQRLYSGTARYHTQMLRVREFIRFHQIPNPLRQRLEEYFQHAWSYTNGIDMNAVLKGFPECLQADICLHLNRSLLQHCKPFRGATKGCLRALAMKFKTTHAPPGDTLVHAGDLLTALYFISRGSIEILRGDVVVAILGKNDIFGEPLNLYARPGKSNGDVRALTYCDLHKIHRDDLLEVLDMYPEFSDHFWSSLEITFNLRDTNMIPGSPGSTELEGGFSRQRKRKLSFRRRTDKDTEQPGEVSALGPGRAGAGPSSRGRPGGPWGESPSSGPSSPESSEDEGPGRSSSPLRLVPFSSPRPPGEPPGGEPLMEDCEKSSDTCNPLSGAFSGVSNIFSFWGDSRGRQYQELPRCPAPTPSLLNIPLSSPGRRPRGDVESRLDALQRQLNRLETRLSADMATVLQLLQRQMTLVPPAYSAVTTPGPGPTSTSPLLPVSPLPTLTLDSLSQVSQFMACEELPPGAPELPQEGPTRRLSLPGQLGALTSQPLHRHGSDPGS

SMILES | hERG current change (%, negative = inhibition) at 10uM
CCOc1ccc(/C=N/NC(=O)c2ccc(Cn3cc([N+](=O)[O-])cn3)o2)cc1 | -31.4%
Cl.O=C(CNC1=NCCC1)c1ccc(Cl)cc1 | -12.2%
COc1ccc(C)cc1NC(=O)c1sc2ncnc(N3CCN(c4ccccn4)CC3)c2c1C | -9.78%
O=C(NC(=S)N1CCN(Cc2ccc3c(c2)OCO3)CC1)c1cccc(Br)c1 | 3.94%
COc1ccc(CCN(C)C(=O)c2cc(S(=O)(=O)N3CCCCCC3)ccc2OC)cc1OC | -31.8%
CSCCC(NC(=O)c1ccccc1)C(=O)NNC(=O)c1csc(N2CCOCC2)n1 (stereo not shown) | 20.9%
CCCCn1c(N)c(N(CCOC)C(=O)c2cc(-c3ccc(OC)cc3)nc3ccccc23)c(=O)[nH]c1=O | -1.57%
CCN(C(=O)COC(=O)c1cc(S(=O)(=O)Nc2c(C)n(C)n(-c3ccccc3)c2=O)ccc1Cl)C1CCCCC1 | -49.9%
S=c1[nH]ccn1-c1cccc(Cl)c1 | 19.2%
Cc1ccc(NC(=O)CCNC(=O)c2ccco2)cc1 | 14.8%
Cc1cccc2c(=O)cc(C(F)(F)F)[nH]c12 | 13.8%
Cc1cccc(NC2=Nc3ccccc3N3C2=Nc2c(c(C)nn2-c2ccccc2)C3c2ccc(O)c(O)c2)c1 (stereo not shown) | -3.53%
CSc1ccc(C#N)cc1NC(=O)c1cccnc1Cl | 9.6%
Cc1ccc(CCNC(=O)C2CCN(S(=O)(=O)N3CCC4(CC3)OCCO4)CC2)cc1 | -2.29%
COc1ccccc1OCc1nc(C#N)c(N2CC(C)CC(C)C2)o1 (stereo not shown) | -24.7%
O=C(CN1CCCC1)OCCCc1ccccc1 | 6.79%
CCOC(=O)C1CCCN(C(=O)/C=C/c2ccc(OC)cc2)C1 (stereo not shown) | -23.6%
COc1ccc(OC)c(/C=C/C(=O)N2CCN(S(=O)(=O)c3ccc(C)cc3C)CC2)c1 | -1.49%
CCc1nnc(NC(=O)CSc2nnc(-c3ccc(NS(=O)(=O)c4ccccc4)cc3)o2)s1 | 12.1%
Cc1nc(N2CCC3(CC2)OCCO3)c2nnn(Cc3ccccc3F)c2n1 | -7.48%
O=C(NNS(=O)(=O)c1cccc(Cl)c1)c1cc(-c2ccc(F)cc2)nc2ccccc12 | 11.6%
CC(=O)c1ccccc1NC(=O)C1CCCN(C(=O)c2ccc(Cl)cc2)C1 (stereo not shown) | -25.6%

SMILES | hERG current change (%, negative = inhibition) at 10uM
CCOc1cc(NC(=O)c2cccs2)c(OCC)cc1NC(=O)CCC(=O)NCCN1CCOCC1 | 26.5%
CCOC(=O)c1ccc(NCc2cccnc2)cc1 | 0.518%
Cn1ccnc1SCC(=O)c1c[nH]c2ccccc12 | 23%
NC(=O)c1cc(N)ccc1N1CCCCC1 | -17.5%
O=C(O)CCn1cc(-c2ccc(F)cc2)nc1-c1ccncc1 | 9.13%
O=C(O)CC(NC(=O)C12CC3CC(CC(C3)C1)C2)c1cccc(Cl)c1 (stereo not shown) | 6.58%
Cc1ccc(S(=O)(=O)NCCOc2cc(C)ccc2C)cc1 | -6.41%
COc1ccc(N(C(C)C(=O)N/N=C/c2ccc(OC(C)C)cc2)S(C)(=O)=O)cc1 (stereo not shown) | -52.4%
Cc1cc(C)c(C#N)c(SCC(=O)Nc2ccccc2)n1 | 13.3%
CCOC(=O)C1(Cc2cccc(F)c2)CCN(CC(O)CO)CC1 (stereo not shown) | 14.5%
O=Cc1ccc(OC(=O)C2CC(=O)N(c3ccc(F)cc3)C2)cc1 (stereo not shown) | -0.986%
O=C(CSc1nnnn1-c1cccc(F)c1)NC1CCCCC1 | 3.93%
CC(=O)c1cccc(NC(=O)COc2ccc(S(=O)(=O)N3CCCCC3)cc2)c1 | -36.9%
Cc1ccc(/C=N/N=C/c2ccc(C)s2)s1 | 7.85%
COc1ccc(-n2nc(C(=O)O)nc2-c2ccccc2)cc1 | 14.1%
O=C(CCn1nnc2ccccc21)Nc1nnc(-c2ccccc2F)s1 | 3.13%
O=C(CSc1nnc(-c2ccc(F)cc2)c2ccccc12)Nc1ccccc1 | 6.68%
CCN(CC)c1ccc(NC(=O)c2cccc(F)c2)c(C)c1 | -8.26%
Cc1ccc(NC(=O)c2ccc(NC3=NC4CS(=O)(=O)CC4S3)cc2)cc1 (stereo not shown) | 11.3%
O=C(CN(C(=O)CNS(=O)(=O)c1ccccc1)C1CCCC1)NCc1ccco1 | 8.31%
O=S(=O)(NCC(Nc1ccc(Cl)cc1)c1ccccc1)c1ccccc1 (stereo not shown) | -4.66%
